Among the data in PMC12136788 are binding signal values, retold here.

T1: UNK ZnF1-3 (human, UniProt Q9C0B0 31-174)
T1 sequence: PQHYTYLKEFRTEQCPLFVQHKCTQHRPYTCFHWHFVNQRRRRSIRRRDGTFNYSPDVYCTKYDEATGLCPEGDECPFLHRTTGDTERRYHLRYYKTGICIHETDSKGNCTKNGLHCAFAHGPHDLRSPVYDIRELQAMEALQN

B1: chr2:24222969:24222970:+_ENSG00000173960_ENST00000309033|hu_hu|FALSE|FALSE (ssRNA)
RNA: GGGAGUUCUACAGUCCGACGAUCAUUCUAAACAAUACAGCUAUUUAAUAUAUCUUGAUAACUGGUAUUUGAAAAUAAGUCUAUUUUUCUGGGUAGUCUUUUGGAGAAAGUGCACUGAAUAUAGUUUCCAGUCAUAUGCUACUUCAACAGAGGAUUGAGCAUCA
B2: 35030014_35030134_388_CDS_ENSMUSG00000038784_ENSMUST00000114993|mouse|control|control (ssRNA)
RNA: GGGAGUUCUACAGUCCGACGAUCAAAUCGGCAUAUCUGGUAGCCACAGGUGCAAGGGAAAAAGUUAAUAUCAUCUAUUUCCAAGGGCUCCAUGCAAAGAGGGCAUUCCACAGGGUCUUCCUUUGCAUCAGGACUGCGAGACAUCAACAGAGGAUUGAGCAUCA
B3: 120000320_120000440_688_CDS_ENSMUSG00000061306_ENSMUST00000103018|mouse|control|control (ssRNA)
RNA: GGGAGUUCUACAGUCCGACGAUCGAAGAGGAGCGCCAUGGCACUGAAGGACUGGAUAGAGGCCAUCAUGUUUCUCUGCAGGCUGAGCGGGAGCACAAUGAACAGGGACACUGCGAAGAGCAGGAACACACGGACAGUCCUGGUCAACAGAGGAUUGAGCAUCA
B4: chr5:116097646:116097647:+_ENSMUSG00000029518_ENSMUST00000031492|mus_hu|FALSE|FALSE (ssRNA)
RNA: GGGAGUUCUACAGUCCGACGAUCAAAAGCAUAAUUAGAAACUUUCAAUACAGAAAUACUCCUAGCAAACCAUUGAAAAGUGGUGUUUGUUUGACAGGAAUUUCACAUCAGGUCCACUAGGACGUCGGUCCAGCCCUGAGUCCCCAACAGAGGAUUGAGCAUCA
B5: chr1:120316058:120316059:+_ENSMUSG00000064302_ENSMUST00000049404|mus_hu|FALSE|FALSE (ssRNA)
RNA: GGGAGUUCUACAGUCCGACGAUCCACCAUGUGUGUCUGAAGAGCAGCUGGUAGGAUAUUAAAAGUCCAAUUUAAAUAACUAGUAGGAGAUAAAGGAGUGAGUGGCAGAGUGAUGUUCUACUACUGGGUCUGAAAUACUUCAUACAACAGAGGAUUGAGCAUCA
B6: chr9:107926503:107926504:+_ENSMUSG00000032594_ENSMUST00000035214|mus_mus|FALSE|FALSE (ssRNA)
RNA: GGGAGUUCUACAGUCCGACGAUCGGGGGCCGGUUGCACACUGAUGGCAGACGAUGCAGCACAUGGACCACAAAAGGAGAGCUAAGUUGAUCCUGGCUAGUGGGAGGCCAAUGGUCACAGUCUGCUUAGUUUACUGUUCUGUCCCAACAGAGGAUUGAGCAUCA
B7: chr4:47850210:47850211:-_ENSG00000170448_ENST00000381538|hu_hu|FALSE|FALSE (ssRNA)
RNA: GGGAGUUCUACAGUCCGACGAUCUACAUUAAAAGAUCAAAACUUUUUUUAAUUGACAUCAUGGGUGAUGUACCAGGCAAACACUACAACCACAACUCCACACACUGAAAUGAGAUAAUAUUUAUGUUUUUGCCAUAGUGAUAGCAACAGAGGAUUGAGCAUCA
B8: chr2:202488911:202488912:-_ENSG00000155755_ENST00000286196|hu_mus|hu_hu_hu_mus_False|8_58 (ssRNA)
RNA: GGGAGUUCUACAGUCCGACGAUCAUUGAAACAUUUUUCAUAAUCUCCAGUAGCAUUUCAGCAUUAUGUAACAAAAGAUCUAUUACAAAUACAUGUAUCUUAUAAAAAUACACUUAAAAACACGAGUAAAAAUGGGAGGCGCCACAACAGAGGAUUGAGCAUCA
B9: chr1:60041781:60041782:+_ENSMUSG00000041040_ENSMUST00000036540|mus_hu|mus_mus_mus_hu_False|38_108 (ssRNA)
RNA: GGGAGUUCUACAGUCCGACGAUCAAGAGGAGUGAAUUAAAGUAAAUGCAGUAGUGGCAAAUUUUCUUUUAUUUUCCUUCACAAAAGAAAAUCUUUAGAUCUCAGUUCUAGUCUUGGACAUAGUGAAAGCUAUAAAUUCUGACUCAACAGAGGAUUGAGCAUCA
B10: 93489317_93489437_2376_CDS_ENSG00000173575_ENST00000394196|human|control|control (ssRNA)
RNA: GGGAGUUCUACAGUCCGACGAUCUCUUGUUGGGAUGGUUUUUGAGUUGUUCCUACUGUGGAAGCUGUCAAUGCAAUUCUGGAAUUUCUUUCCAAUGAGGGCUUCAUCUUCCCAGCUACACUCUGAAUAGGGGAGUCCCAUCCACAACAGAGGAUUGAGCAUCA
B11: 83748629_83748749_3059_CDS_ENSG00000138674_ENST00000348405|human|control|control (ssRNA)
RNA: GGGAGUUCUACAGUCCGACGAUCCUGGCCACCUGGAAGAUGUGGCUGUGGGAAUGAAGACUGGCUUGACAGUGGUACUGGAGCUGAAGGCUGUUGCUGCAGCAUUUGUGACUGGGGGUCACCCAACGGGUUCAUGAUUGGUGACAACAGAGGAUUGAGCAUCA
B12: 69601168_69614239_201_CDS_ENSG00000198380_ENST00000361060|human|control|control (ssRNA)
RNA: GGGAGUUCUACAGUCCGACGAUCCUGAAGGCCUUUGAUUAGGGUCUCCAGGAUUUCUCGUCUCGUUCGAGGAACAUGGUAGUUUAAGUAAGCAAAUAUACCACACAUGAUGCCGGAGACACGGCCCGCGAGGCCAGGGGCGAGCAACAGAGGAUUGAGCAUCA
B13: 215781420_215785192_1725_CDS_ENSG00000136636_ENST00000259154|human|control|control (ssRNA)
RNA: GGGAGUUCUACAGUCCGACGAUCUUGAUCGUCUCGCUCUCCAAAAGGUCCUAUGUCAUUUCCAGAGGAAUAGCUACCAUGACUUUCUGUCUCCUCCAGGGAUAGUAUCUUGAAUGACGCUAAAGGAGUAGAACCUGGCUGAGUCAACAGAGGAUUGAGCAUCA
B14: chr7:141441981:141441982:+_ENSG00000106028_ENST00000265304|hu_mus|hu_hu_hu_mus_False|8_28 (ssRNA)
RNA: GGGAGUUCUACAGUCCGACGAUCCUCAUGUCUUACAAACUGACGAAAUACCUGUAACACAGGUCUUCGAAACAUGGCUUCUGUUUUUCUUACAACCUAAUCUUUAGUUAGGCUUUUAAGGAAAGAAUAACCCGAGCAAAAUGACAACAGAGGAUUGAGCAUCA
B15: 54496482_54496602_1247_3pUTR_ENSMUSG00000039156_ENSMUST00000071083|mouse|control|control (ssRNA)
RNA: GGGAGUUCUACAGUCCGACGAUCUCAGCUCACACUCUGCGCCCUCCCUCAGCUCCCGCAGCCGACAGGCCUCCUCCUUGGCAUAGUUGAUUUCAUCCAUCAUUUUCCGUUCCAGAUUUUGCUUUUCUACAGCAACAGUUCUGUCAACAGAGGAUUGAGCAUCA
B16: chrX:39613801:39613802:+_ENSMUSG00000025862_ENSMUST00000069619|mus_mus|motif|central (ssRNA)
RNA: GGGAGUUCUACAGUCCGACGAUCCAAGUUUAAAGGUGGAUGGCUCUCCCCUUGUGGAUUAGGCUCCUUAAAAGCAAAUUCGGUACCAUCUUUGUGGAGCAUGGCAAUGGCUUCUCUGGUUUUCAAUUGAUCAAGUCCAAAAGUCAACAGAGGAUUGAGCAUCA
B17: chr1:66480114:66480115:+_ENSMUSG00000015222_ENSMUST00000024639|mus_hu|FALSE|FALSE (ssRNA)
RNA: GGGAGUUCUACAGUCCGACGAUCUGGCCUGUGGCGGAUGUUCUUCAGAGAGCCACAUUUGGAUGUCACAUGGCUUAGGUCUAUUUUCUUGGUAACAAUUUGUACCUGCCCCCCUUUAGGCUGGUAUUUGAUGUUGUCUGUUGACAACAGAGGAUUGAGCAUCA
B18: chr14:61435135:61435136:+_ENSG00000020426_ENST00000539616|hu_hu|FALSE|FALSE (ssRNA)
RNA: GGGAGUUCUACAGUCCGACGAUCUAAAUACUUUAACACAGCUGCUAGUGGAAGGACUGUGUUGUGCAGCUGCACAUAGCUAUAAUUUUAUAAGUCUGCUUUACUUUUGCUAGCUCCCUGGUUCAGCUCCAAGGUCCAAAUCUUCAACAGAGGAUUGAGCAUCA
B19: chr7:35424158:35424159:-_ENSMUSG00000030499_ENSMUST00000108069|mus_hu|FALSE|FALSE (ssRNA)
RNA: GGGAGUUCUACAGUCCGACGAUCGUACAUCAGCAUCUUUACAAUAUUAAAGGAGCCAUAUACAAGUCUACAGCCAUUGUACACAGGAUGGUGAUGGCUGGGGAGCCCCGCCCACCAGUCCUCUGCAGUUUCUCCACCGGAGAACAACAGAGGAUUGAGCAUCA
B20: chr11:102546300:102546301:-_ENSMUSG00000020925_ENSMUST00000092569|mus_mus|FALSE|FALSE (ssRNA)
RNA: GGGAGUUCUACAGUCCGACGAUCAAAAAUGACUGGGCCAAACUUGGCCCGUGAGUGGAGUCUUCUGACCCCUGGUAUAAAAUAAUCUUAUCAGAGAAACUGUUCUCUUGAGGCUUUUGAUACCUGUUGCCCAAAGUCAGGUACCAACAGAGGAUUGAGCAUCA
B21: chr17:74801258:74801259:+_ENSMUSG00000024069_ENSMUST00000024870|mus_mus|motif|central (ssRNA)
RNA: GGGAGUUCUACAGUCCGACGAUCGUUGAUUGCACCGAACAGAAGGAUCUUCCAGGACCUCCGGUCAGCUGCGACAAGUCGGAAUUCCUGUAGUAACUUUCCAAAAAAAGAUCUCUGUGGCUUUCGAAAGAGAUGAAUCGUCCCCAACAGAGGAUUGAGCAUCA
B22: chr22:32894459:32894460:+_ENSG00000100225_ENST00000397426|hu_hu|motif|central (ssRNA)
RNA: GGGAGUUCUACAGUCCGACGAUCACAAAUCAAUCACAUGAAUGACAGCCGGCCAUCAGUUGGCCGACCCCUGCUGGGUCGGAAGGGAAAUCUGUCAUUGGGGCCGCCUCGCCCUGGCAAGAUGGGGUUAGGUCCUGGAAGUGGCAACAGAGGAUUGAGCAUCA

Some of the results follow.

This experiment has as its target T1, UNK ZnF1-3. Description: nsRBNS (natural sequence RNA bind-n-seq); RBNS binding buffer (assumed for nsRBNS): 25 mM Tris pH 7.5, 150 mM KCl, 3 mM MgCl2, 0.01% Triton X-100, 500 ug/ml BSA, 20 U/ml SUPERase-In, 4 C; UNK is unkempt and MSI1 is Musashi-1; names of the RNAs are library labels; protein concentration not given here; high values mean tight binding.
B1 registered a binding signal of 1.06 enrichment R.

For the molecule B2, the binding signal was found to be 0.893 enrichment R.

In turn, B3 registered a binding signal of 1.75 enrichment R.

Take B4: the binding signal is 1.02 enrichment R.

Regarding B5, the binding signal is 2.12 enrichment R.

As for B6, the binding signal came to 1.65 enrichment R.

As to B7, the binding signal turned out to be 1.41 enrichment R.

In turn, B8 yielded a binding signal of 1.34 enrichment R.

B9 displayed a binding signal of 0.519 enrichment R.

Turning to B10, the binding signal came to 0.728 enrichment R.

B11 displayed a binding signal of 1.25 enrichment R.

The molecule B12 displayed a binding signal of 0.865 enrichment R.

In turn, B13 displayed a binding signal of 0.925 enrichment R.

For B14, the binding signal was 0.626 enrichment R.

For B15, the binding signal was 0.837 enrichment R.

In the case of B16, the binding signal amounted to 0.97 enrichment R.

As to B17, the binding signal stood at 0.484 enrichment R.

The molecule B18 had a binding signal of 0.756 enrichment R.

The molecule B19 displayed a binding signal of 1.59 enrichment R.

Take B20: the binding signal is 0.945 enrichment R.

B21: the binding signal was 0.954 enrichment R.

B22 gave a binding signal of 1.11 enrichment R.
